# Assay results: patent publication US20200277339A1 (GENOME PROTECTION, published 2020)
# Residue numbers refer to the chain shown, from its start.
# B1: CBLB502-S33MX (ligand)
# chain: MSGLRINSAKDDAAGQAIANRFTSNIKGLTQASRNAADGISIAQTTEGALNEINNNLQRVRELSVQATAGANADAALKAIQAEIQQRLEEIDRVSQQTQAAAVKVLSQDNAMAIQVGANDGAAITIDLQKIDVKSLGLDGFNVNSPGSTANPLASIDSALSKVDAVRSSLGAIQNRFDSAITNLGNTVTNLNSARSRIEDADYATEVSQMSKAQILQQAGTSVLAQANQVPQNVLSLLVPRGSHHHHHHG
# B2: CBLB502 mutant ME124 (ligand)
# chain: MSGLRINSAKDDAAGQAIANRFTSNIKGLTQASRNANDGISIAQTTEGALNEINNNLQRVRELSVQATNGTNSDSDLKSIQDEIQQRLEEIDAVSAATQFNGVKVLSQDNQMKIQVGANDGETITIDLQKIDVKSLGLDGFNVNSPGSTANPLASIDSALSKVDAVRSSLGAIQNRFDSAITNLGNTVTNLNSARSRIEDADYATEVSNMSKAQILQQAGTSVLAQANQVPQNVLSLLVPRGSHHHHHHG
# B3: CBLB502 mutant ME150 (ligand)
# chain: B2 chain with A93R, A96N, A97Q, N119S, D120A, G121A
# B4: CBLB502 mutant ME132 (ligand)
# chain: B2 chain with A93R, A96N, A97Q, N101A, G102A
# B5: CBLB502 mutant ME468 (ligand)
# chain: B2 chain with A93R, A96N, A97Q, Y203A, A204G, T205A, S208A
# B6: CBLB502 mutant ME104N (ligand)
# chain: B1 chain with A37N, Q96N, A100F, A101N, A102G, A111Q, A113K, A122E, A123T, Q209N
# B7: CBLB502 mutant ME142 (ligand)
# chain: B2 chain with A93R, A96N, A97Q, Q111A, K113A
# Target: TLR5 of the cell-based reporter assays
# Assay: cell-based or functional assay
row,Binder,Signaling EC50 Normalized by CBLB502 [fold vs CBLB502]
1,B1,1.3
2,B2,0.9
3,B3,0.5
4,B4,0.94
5,B5,0.7
6,B6,0.9
7,B7,0.3
